Data from article PMC6919601, “Identification of Plasmodium dipeptidyl aminopeptidase allosteric inhibitors by high throughput screening” (PLoS ONE, 2019).
In all, about 110,000 compounds went through this assay and about 230 (0.21%) showed an effect of 50% or more. Some of the results follow.
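Also: 30 min substrate incubation versus DMSO and 10 µM JCP410 controls.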

The compounds below were run against DPAP1 (Plasmodium falciparum, UniProt Q8IIJ9) (assay: primary screen, percent inhibition; read by cleavage of a fluorogenic dipeptide substrate; higher = more effect of the substance).
Sequence of DPAP1 (Q8IIJ9 whole entry, looked up): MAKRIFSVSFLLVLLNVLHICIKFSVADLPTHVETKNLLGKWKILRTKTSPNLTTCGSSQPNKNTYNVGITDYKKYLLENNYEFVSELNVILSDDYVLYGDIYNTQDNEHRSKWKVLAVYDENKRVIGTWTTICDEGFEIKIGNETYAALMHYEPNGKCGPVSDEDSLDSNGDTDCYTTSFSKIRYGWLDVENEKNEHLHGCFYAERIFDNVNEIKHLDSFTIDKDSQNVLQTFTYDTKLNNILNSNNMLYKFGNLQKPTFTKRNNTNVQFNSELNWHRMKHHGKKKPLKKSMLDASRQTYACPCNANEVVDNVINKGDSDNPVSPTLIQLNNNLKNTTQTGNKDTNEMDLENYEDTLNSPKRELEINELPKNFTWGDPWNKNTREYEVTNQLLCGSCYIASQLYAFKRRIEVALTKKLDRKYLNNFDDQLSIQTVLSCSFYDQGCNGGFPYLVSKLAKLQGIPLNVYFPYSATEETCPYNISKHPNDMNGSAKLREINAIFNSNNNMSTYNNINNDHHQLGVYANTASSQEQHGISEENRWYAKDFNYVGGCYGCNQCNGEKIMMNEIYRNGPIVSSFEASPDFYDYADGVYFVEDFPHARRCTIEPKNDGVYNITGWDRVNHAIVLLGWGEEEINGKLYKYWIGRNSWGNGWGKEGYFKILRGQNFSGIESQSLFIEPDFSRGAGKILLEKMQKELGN
Set-up: species or system P. falciparum D10 trophozoite lysates; single well
With `Cc1ccc(-c2noc(-c3ccccn3)n2)cc1` the “% Inhibition @ 10 uM” value was -7.17%. For `O=C(NCCc1c[nH]c2ccccc12)c1nc(-c2ccc(-n3cccc3)cc2)no1`, the “% Inhibition @ 10 uM” value was 17.2%. `CN(C(=O)c1ccccc1Cl)c1ccccc1` was tested, and the “% Inhibition @ 10 uM” value was 0.135%. With `Cn1cc(S(=O)(=O)N2CCOCC2)cc1C(=O)N1CCOCC1` the “% Inhibition @ 10 uM” value was -5.01%. With `CC(C)C[C@H](NC(=O)c1ccc2c(c1)CCCC2C)C(=O)NCC#N` (stereo partly shown) the “% Inhibition @ 10 uM” value was -1.82%. `CC[C@H](NC(=O)[C@H](C)NC(=O)c1ccc(-c2cc(C(=O)O)ccc2Cl)cc1)C(=O)c1nc2ccccc2o1` was tested, and the “% Inhibition @ 10 uM” value was -6.56%. `Cc1ccc(C2=NN(CCC(=O)NCCN(C)Cc3ccccc3)C(=O)CC2)cc1` was tested, and the “% Inhibition @ 10 uM” value was -0.0542%. With `CCc1nnc2c(NCc3ccc(C)cc3)nc3ccccc3n12` the “% Inhibition @ 10 uM” value was 3.5%. For `COc1ccc(OC)c(S(=O)(=O)N2CCN(C(c3ccccc3)c3ccccc3)CC2)c1`, the “% Inhibition @ 10 uM” value was 1.62%. With `O=C(OCCCN1CCOCC1)c1ccc(O)cc1O` the “% Inhibition @ 10 uM” value was 0.774%. In the case of `CCOc1cc(/C=C2\SC(=O)N(CC(=O)Nc3ccc(C)cc3)C2=O)ccc1O`, the “% Inhibition @ 10 uM” value was -10.2%. In the case of `COc1ccc(/C=C/C=C2\NC(=S)NC2=O)cc1`, the “% Inhibition @ 10 uM” value was -4.8%. In the case of `COc1ccc(-n2nc3c(c2NC(=O)c2ccco2)CS(=O)(=O)C3)cc1`, the “% Inhibition @ 10 uM” value was 8.06%. In the case of `CCCOc1ccc(CNC(=O)C(C)n2ncn3cccc3c2=O)cc1` (stereo not shown), the “% Inhibition @ 10 uM” value was -2.45%. In the case of `O=C(CSc1ncc(-c2ccccc2)n1-c1ccccc1)NCc1ccco1`, the “% Inhibition @ 10 uM” value was -2.77%. For `CCCN(CCO)Cc1cccc(Br)c1`, the “% Inhibition @ 10 uM” value was -9.93%. `COc1ccccc1N(CC(=O)N1CCCC1)S(=O)(=O)c1ccc(C)cc1` was tested, and the “% Inhibition @ 10 uM” value was 2.44%. `C=CCN1C(=O)N/C(=C/c2cc(C)n(-c3ccc(C#N)cc3)c2C)C1=O` was tested, and the “% Inhibition @ 10 uM” value was 7.67%. In the case of `CN1CSC2=C(C#N)C(c3ccc(Br)cc3)CC(=O)N2C1` (stereo not shown), the “% Inhibition @ 10 uM” value was 43.4%. `CCc1nn(CC(=O)N2CCN(CC)CC2)c(=O)c2cccn12` was tested, and the “% Inhibition @ 10 uM” value was 0.544%. For `COc1ccc(C/N=c2/c(-c3ccc(C)cc3)c(O)c2=O)cc1`, the “% Inhibition @ 10 uM” value was -4.68%. For `CN(C)CCCN1C(=O)C(O)=C(C(=O)c2ccc(S(=O)(=O)N(C)C)cc2)C1c1cccnc1` (stereo not shown), the “% Inhibition @ 10 uM” value was -3.06%. In the case of `Cc1nc2c3ccccc3n3c(CCCC(=O)NCc4ccc(Cl)cc4)nnc3n2n1`, the “% Inhibition @ 10 uM” value was 0.44%. For `CC(=O)Nc1ccc(NC(=O)C(C)c2cccc(C(=O)c3ccccc3)c2)cc1` (stereo not shown), the “% Inhibition @ 10 uM” value was 9.01%. For `CCOc1ccc(CNCc2c(C(=O)O)c(C)n(Cc3ccc(F)cc3)c2C)cc1`, the “% Inhibition @ 10 uM” value was -0.23%. `COc1ccccc1S(=O)(=O)Cc1ccc(C(=O)NC2CCCCCC2)o1` was tested, and the “% Inhibition @ 10 uM” value was 0.458%. `O=C(Nc1nccs1)C1CCN(c2ncnc3c2nc2n3CCCCC2)CC1` was tested, and the “% Inhibition @ 10 uM” value was 3.05%. For `CN1CCN(c2ccc(NC(=O)c3cccs3)cc2)CC1`, the “% Inhibition @ 10 uM” value was -3.57%. For `CCOC(=O)c1sc(NC(=O)CSc2nnnn2-c2ccccc2)nc1C`, the “% Inhibition @ 10 uM” value was -1.33%. For `Cc1cc(O)n2nc(N3C(=O)c4ccccc4C3=O)nc2n1`, the “% Inhibition @ 10 uM” value was 0.401%. With `Cc1ccc(-c2c(N3CC(C)CC(C)C3)c(=O)c2=O)cc1C` (stereo not shown) the “% Inhibition @ 10 uM” value was 1.14%. `CCOC(=O)C1CCN(Cc2cccs2)CC1` was tested, and the “% Inhibition @ 10 uM” value was -1.77%. In the case of `CC(NC(=O)N(Cc1ccccc1)Cc1ccc2c(c1)OCO2)(C(F)(F)F)C(F)(F)F`, the “% Inhibition @ 10 uM” value was 2.09%. For `COc1cccc(/C=C2/NC(=O)N(Cc3ccc(F)cc3)C2=O)c1`, the “% Inhibition @ 10 uM” value was -0.95%. With `O=C(O)/C=C\C(=O)N(c1ccccc1)c1ccc2ccccc2c1` the “% Inhibition @ 10 uM” value was 0.00773%. For `CCC(=O)NC(c1ccco1)c1c(O)ccc2ccccc12` (stereo not shown), the “% Inhibition @ 10 uM” value was 4.99%. For `CC1CCCN(C2CCN(C(=O)c3cccc(Cl)c3)CC2)C1` (stereo not shown), the “% Inhibition @ 10 uM” value was 3.54%. In the case of `O=C(c1cc(-c2ccccc2)c(N2CCCCC2)s1)N1CCN(c2ccccn2)CC1`, the “% Inhibition @ 10 uM” value was -1.04%. With `COc1cc(C(=O)N2CCN(Cc3ccc(C(F)(F)F)cc3)CC2)cc(OC)c1OC` the “% Inhibition @ 10 uM” value was 3.86%. `Cc1nc(C)c(NC(=O)N2CCOCC2)cc1NC(=O)N1CCOCC1` was tested, and the “% Inhibition @ 10 uM” value was 1%. `O=C(NCc1ccccc1C(F)(F)F)c1ccccn1` was tested, and the “% Inhibition @ 10 uM” value was -6.91%. In the case of `CC1CCCC(NS(=O)(=O)c2ccc3[nH]c4c(c3c2)CCCC4)C1C` (stereo not shown), the “% Inhibition @ 10 uM” value was -5.3%. For `CC(C)(C)c1ccc(S(=O)(=O)NCc2ccc(C(=O)NCC3CCCO3)cc2)cc1` (stereo not shown), the “% Inhibition @ 10 uM” value was 0.389%. `COc1ccccc1CNC(=O)C(NS(=O)(=O)c1cccc2nsnc12)C(C)C` (stereo not shown) was tested, and the “% Inhibition @ 10 uM” value was 4.54%. With `O=S1(=O)N(Cc2ccc(Cl)cc2)CCCN1Cc1cccc(C(F)(F)F)c1` the “% Inhibition @ 10 uM” value was -5.32%. In the case of `COc1ccc(C2C(C(=O)c3ccc(C)cc3)=C(O)C(=O)N2c2cccc(C(=O)O)c2)cc1OC` (stereo not shown), the “% Inhibition @ 10 uM” value was -8.78%. With `COc1ccc(COC(=O)C2=C(C)NC(=O)NC2c2ccc(O)cc2)cc1` (stereo not shown) the “% Inhibition @ 10 uM” value was 16.9%. `N#Cc1c(-c2ccccc2)cc(-c2ccccc2)c(C#N)c1N` was tested, and the “% Inhibition @ 10 uM” value was 0.716%. With `COc1cccc(N2C(=O)CC(N3CCN(c4ccccc4Cl)CC3)C2=O)c1` (stereo not shown) the “% Inhibition @ 10 uM” value was -1.79%.
